The list shows a part of the results.
How the values were obtained:
HSkMC = human skeletal muscle cells; test: cytotoxicity call (relative viability < 0.9); settings: 10 µM
HepG2 = test: cytotoxicity call (relative viability < 0.9); settings: 10 µM
S. aureus RN4220 = test: growth inhibition call (relative growth <= 0.2); settings: 50 µM

Row | Compound | cytotoxicity call (HSkMC) | cytotoxicity call (HepG2) | growth inhibition call (S. aureus RN4220)
1 | COC(=O)c1cn(CCNC(=O)[C@@H](NS(=O)(=O)c2ccc(C)cc2)C(C)C)nn1 | inactive | inactive | inactive
2 | COCC#Cc1ccc([C@@H]2[C@@H](CO)N3C(=O)CN(C(=O)CN4CCOCC4)C[C@@H]23)cc1 | inactive | inactive | inactive
3 | C[C@H]1CN([C@@H](C)CO)C(=O)c2cccc(NC(=O)C3CCOCC3)c2O[C@@H]1CN(C)S(=O)(=O)c1ccc(Cl)cc1 | inactive | inactive | inactive
4 | COc1ccc(S(=O)(=O)N(C)C[C@@H]2OCCCC[C@H](C)Oc3ccc(NC(=O)Nc4ccc5c(c4)OCO5)cc3C(=O)N([C@H](C)CO)C[C@H]2C)cc1 | inactive | inactive | inactive
5 | Cc1noc(C)c1NC(=O)Nc1ccc2c(c1)C(=O)N([C@@H](C)CO)C[C@@H](C)[C@H](CN(C)C(=O)NC(C)C)O2 | inactive | inactive | inactive
6 | O[C@H]1[C@H](O)[C@@H](O)[C@H](O)[C@H](O)[C@H]1O | inactive | inactive | inactive
7 | Cc1noc(C)c1NC(=O)N(C)C[C@@H]1OCCCC[C@H](C)Oc2ccc(NC(=O)Cc3ccccc3)cc2C(=O)N([C@H](C)CO)C[C@H]1C | inactive | inactive | inactive
8 | C[C@@H]1CCCCO[C@@H](CN(C)C)[C@H](C)CN([C@@H](C)CO)C(=O)c2cc(NC(=O)CCCN(C)C)ccc2O1 | inactive | inactive | inactive
9 | Cc1noc(C)c1S(=O)(=O)N(C)C[C@@H]1Oc2c(NS(=O)(=O)c3cn(C)cn3)cccc2C(=O)N([C@@H](C)CO)C[C@H]1C | inactive | inactive | inactive
10 | C[C@@H]1CN([C@H](C)CO)C(=O)Cc2cc(NC(=O)Cc3cn(C)c4ccccc34)ccc2O[C@@H]1CN(C)S(C)(=O)=O | inactive | inactive | inactive
11 | Cc1noc(C)c1NC(=O)Nc1ccc2c(c1)C(=O)N([C@H](C)CO)C[C@H](C)[C@@H](CN(C)C(=O)Cc1ccccc1)OCCCC[C@@H](C)O2 | inactive | inactive | inactive
12 | Cc1noc(C)c1NC(=O)N(C)C[C@H]1OCCCC[C@@H](C)Oc2ccc(NC(=O)c3ccccc3)cc2C(=O)N([C@H](C)CO)C[C@H]1C | inactive | inactive | inactive
13 | C=C1C[C@@H]2CC[C@@]34C[C@H]5O[C@H]6[C@@H](O3)[C@H]3O[C@H](CC[C@@H]3O[C@H]6[C@H]5O4)CC(=O)C[C@@H]3[C@@H](OC)[C@@H](C[C@H](O)CN)O[C@H]3C[C@H]3O[C@@H](CC[C@@H]1O2)C[C@@H](C)C3=C | active | inactive | inactive
14 | C[C@H](CO)N1C[C@H](C)[C@H](CN(C)Cc2ccc(C(=O)O)cc2)OCCCC[C@H](C)Oc2ccc(NS(=O)(=O)c3ccc(Cl)cc3)cc2C1=O | inactive | inactive | inactive
15 | Cc1ccc(S(=O)(=O)Nc2cccc3c2O[C@H](CN(C)S(=O)(=O)c2ccc(F)cc2)[C@H](C)CN([C@H](C)CO)C3=O)cc1 | inactive | inactive | inactive
16 | Cc1noc(C)c1NC(=O)N(C)C[C@H]1Oc2cc(C#CCN(C)C)ccc2S(=O)(=O)N([C@H](C)CO)C[C@@H]1C | inactive | inactive | inactive
17 | Cc1ccc(S(=O)(=O)Nc2ccc3c(c2)CC(=O)N([C@@H](C)CO)C[C@@H](C)[C@@H](CN(C)Cc2ccc(Cl)c(Cl)c2)O3)cc1 | active | active | inactive
18 | O=C(CCO)c1ccc(O)cc1 | inactive | inactive | inactive
19 | C[C@@H]1CCCCO[C@H](CN(C)S(=O)(=O)c2ccc(Cl)cc2)[C@H](C)CN([C@@H](C)CO)C(=O)c2cc(NC(=O)Nc3cccc4ccccc34)ccc2O1 | inactive | inactive | inactive
20 | N#Cc1ccc(NCCNC(=N)N)nc1 | inactive | inactive | inactive
21 | CC(=O)Oc1cc(-c2coc3cc(OC(C)=O)c(OC(C)=O)c(OC(C)=O)c3c2=O)cc(OC(C)=O)c1OC(C)=O | inactive | inactive | inactive
22 | COc1ccc(S(=O)(=O)N(C)C[C@@H]2Oc3ccc(NC(=O)Cc4ccccc4)cc3CC(=O)N([C@@H](C)CO)C[C@@H]2C)cc1 | inactive | inactive | inactive
23 | C[C@@H]1CN([C@@H](C)CO)C(=O)c2cc(NS(=O)(=O)c3cccs3)ccc2O[C@@H](C)CCCCO[C@H]1CN(C)C(=O)Cc1ccccc1 | inactive | inactive | inactive
24 | C[C@@H]1CN([C@H](C)CO)C(=O)c2cccc(NC(=O)Nc3cccc4ccccc34)c2O[C@@H]1CN(C)Cc1ccc(C(F)(F)F)cc1 | inactive | inactive | inactive
